# From PubChem BioAssay AID1347073 (National Center for Advancing Translational Sciences (NCATS), 2019)
# Out of some 45,000 compounds screened, about 200 (0.44%) were called active. Inconclusive results (about 7%) are left out. Calls come from the whole dose curve; as a rule, active = well fitted activation curve with a large enough effect; inconclusive = small, poorly fitted or top-dose-only effect; inactive = no such curve, though single readings can be large or run the other way. Some of the results follow.
# Assay: qHTS of TDP-43 Inhibitors: NCGC Sytravon Library Screen; note: 0% is about no effect; nearly all actives have a fitted effect of over 55% in size
# Conditions: yeast TDP-43 toxicity rescue, BacTiter-Glo growth, 24 h; series mostly up to 46.1 µM; growth rescue (activation): at the top concentration
# In short: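 TDP-43-expressing yeast, pregrown in raffinose, seeded at OD600 0.02 in galactose medium with compound for 24 hr at 30 deg C. Growth read by BacTiter-Glo luminescence, so rescue of toxicity appears as activation.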
row,SMILES,growth rescue (activation)
1,Cc1cc(=O)oc2cc(OCC(=O)N3CCCc4ccccc43)ccc12,inactive: 20.9%
2,CCCOc1ccc(/C(O)=C2/C(=O)C(=O)N(CCCn3ccnc3)C2c2cccnc2)cc1 (configuration not stated),inactive: 10.8%
3,CC1CCCC(C)N1/N=C/c1ccccc1OC(F)F (configuration not stated),inactive: 16.1%
4,Cc1nc2sccn2c(=O)c1Br,inactive: 5.2%
5,O=S(=O)(c1ccc(F)cc1)N1CCN(CCOc2ccccc2)CC1,inactive: 11.1%
6,CC(C)c1ccc(NC(=O)c2cc3c(=O)n(C)c4ccccc4c3n2C)cc1,inactive: 28.7%
7,COC(=O)c1cc(Cl)c(NC(=O)/C=C/c2ccc(Cl)cc2Cl)cc1OC,inactive: 9.46%
8,CCOC(=O)c1ccc(NC(=O)C(=O)NCc2ccco2)cc1,inactive: 10.5%
9,Cc1ccc(-c2[nH]c(=O)n3ccncc23)s1,inactive: 8.8%
10,Cc1ccsc1C(=O)OCC(=O)NC1CC1,inactive: 15%
11,CC(OC(=O)c1ccc2c(c1)NC(=O)CS2)C(=O)c1ccc(F)cc1 (configuration not stated),inactive: 11.2%
12,CCCN(CCC)Cc1c(C(=O)N/N=C/c2c[nH]c3ccccc23)nnn1-c1nonc1N,inactive: 0.72%
13,CC1CN(C(=O)COC(=O)Cc2c(Cl)cccc2Cl)CC(C)O1 (configuration not stated),inactive: -5.52%
14,CCOC(=O)C1C(c2ccc([N+](=O)[O-])cc2)C2C(=O)NN=C2CC1(C)O (configuration not stated),inactive: 12.4%
15,O=C(NCc1ccc2c(c1)OCO2)C1CC(=O)N(c2ccc(Cl)cc2)C1 (configuration not stated),inactive: 13.1%
16,Cc1ccnc(NS(=O)(=O)c2ccc(NS(=O)(=O)Cc3ccccc3)cc2)n1,inactive: 14.4%
17,CCN1C(=O)CC(C(=O)Nc2ccc(F)cc2)SC1=Nc1ccc2c(c1)OCO2 (configuration not stated),inactive: 9.14%
18,O=S(=O)(/N=C(\[O-])C[n+]1ccccc1)c1ccc(Cl)cc1,inactive: -5.69%
19,O=C(CSc1nc2sc3c(c2c(=O)[nH]1)CCC3)NCCO,inactive: -1.06%
20,O=C(CNc1ccccc1N1CCCC1=O)Nc1cc(C(F)(F)F)ccc1-n1cncn1,inactive: 16.3%
21,CC1=CCC2C(=O)N(c3ccc4ccccc4n3)C(=O)C2C1 (configuration not stated),inactive: 4.76%
22,Cc1noc(C)c1C(=O)OCC(=O)NC1CCCCC1C (configuration not stated),inactive: -3.89%

row,SMILES,growth rescue (activation)
1,Cc1oc2cc(O)ccc2c(=O)c1-c1nncn1-c1ccccc1,inactive: -13.1%
2,Cc1ccc(CCNC(=O)CCSCc2ccc(Cl)cc2)cc1,inactive: 7.35%
3,CC(C)(C)C(=O)N1CCN(c2ccc(NC(=O)c3ccc4c(c3)OCCO4)cc2)CC1,inactive: 3.35%
4,CCc1nc(N2CCOCC2)c(C#N)c2c1COC(C)(C)C2,inactive: 26.1%
5,O=C(CCc1nnc(-c2ccccc2)o1)NCc1cc(F)ccc1F,inactive: 23.9%
6,CCCC(C(=O)NCC1CCCO1)N(Cc1ccccc1)C(=O)CNS(=O)(=O)c1ccccc1 (configuration not stated),inactive: 3.05%
7,C[N+]1(C)CC2=Cc3ccccc3CC2C1 (configuration not stated),inactive: -21.3%
8,CCCCC(=O)NC(=S)Nc1cccc(C(=O)O)c1,inactive: 12.8%
9,CC(=O)NC(c1ccccc1)c1nc(-c2ccccc2)cs1 (configuration not stated),inactive: 20.2%
10,COc1cc(C(C)=O)ccc1OCC(O)CN1CCN(c2ccc(F)cc2)CC1 (configuration not stated),inactive: 10.7%
11,CC(=O)NC(NC(=S)Nc1ccccc1Br)C(Cl)(Cl)Cl (configuration not stated),inactive: 17.4%
12,COc1cc(Cl)cc(/C=C/c2ccc3cccc(O)c3n2)c1OC,inactive: 12.6%
13,O=C(c1ccncc1)N1N=C(c2ccc(Cl)cc2)CC1c1ccccc1O (configuration not stated),inactive: 35.4%
14,CCN1/C(=C/c2ccc3ccc(C)cc3[n+]2CC)Sc2ccccc21,inactive: -91.8%
15,CC(=O)Nc1cccc(-c2ccnc3c2CC(C(=O)Nc2cccc(Oc4ccccc4)c2)O3)c1 (configuration not stated),inactive: 11.4%
16,Clc1ccc(C2=NNC(=NCC3CCCO3)SC2)cc1 (configuration not stated),inactive: 16.2%
17,COCCCNC(=O)c1c(N)n(/N=C/c2cccnc2)c2nc3ccccc3nc12,inactive: 41.9%
18,S=c1nc(C2CC2)n(-c2ccccc2)[nH]1,inactive: 1.74%
19,Cc1cc(N2CCOCC2)ccc1/C=C1\NC(=O)N(Cc2ccccc2F)C1=O,inactive: 8.26%
20,Cn1cc(CN2CCN(Cc3cccnc3)CC2)c(-c2ccc3c(c2)OCCO3)n1,inactive: 14.5%
21,CC(=O)c1ccc[n+](CC(=O)NC(C)c2ccccc2)c1 (configuration not stated),inactive: -2.36%
22,N=c1n(CCCOc2ccc(F)cc2)c2ccccc2n1CC(N)=O,inactive: 23.1%

row,SMILES,growth rescue (activation)
1,CC(=O)Nc1ccc(S(=O)(=O)N2CCC(C(=O)NCCc3ccc(Cl)cc3)CC2)cc1,inactive: 4.2%
2,O=C(COC(=O)COc1ccc(Cl)cc1Br)NCc1cccs1,inactive: -11.4%
3,CCC(C)c1ccc(NC(=O)c2[nH]c(C)c(C(C)=O)c2C)cc1 (configuration not stated),inactive: 27.2%
4,O=C(O)c1cccc(-c2csc(C(O)c3ccccc3)n2)c1 (configuration not stated),inactive: 15.1%
5,CCOc1ccc(NC(=O)CN2C(=O)C(c3ccccc3)=NC23CCCCCC3)cc1,inactive: 23.3%
6,O=C(Nc1cccc(Cl)c1)Nc1ccc2c(c1)C(=O)OC2,inactive: -3.54%
7,CC1(C(=O)Nc2ccc3c(c2)OCCO3)CCN1Cc1ccccc1OC(F)F (configuration not stated),inactive: 2.04%
8,CCN1CCN(C(=S)NC(=O)c2cc(OC)c(OC)c(OC)c2)CC1,inactive: 12%
9,COc1ccc(Br)cc1CN(C)CC(=O)Nc1cccc(S(=O)(=O)N2CCCC2)c1,inactive: -4.38%
10,CCC(C)NC(=O)CC(c1ccccc1)c1cc(C)ccc1O (configuration not stated),inactive: 3.35%
11,Cc1cc(C)c2c(c1)N[C@H](c1cccs1)[C@@H]1CCO[C@H]21,inactive: 10.6%
12,COc1cccc(NC(=O)COc2ccccc2C(N)=O)c1,inactive: 16.5%
13,COc1ccc(S(=O)(=O)N2CCC(Nc3ccccc3Cl)CC2)cc1,inactive: 15.5%
14,Cc1ccc(S(=O)(=O)N2CCN(CC(=O)NC(C)c3ccccc3)CC2)cc1 (configuration not stated),inactive: 4.7%
15,Cc1cc(=O)oc2cc(OCC(=O)NC3CCCCC3)c(Cl)cc12,inactive: 3.71%
16,COc1ccc(CCNC(=O)C(C)Sc2ccccc2)cc1OC (configuration not stated),inactive: -12.3%
17,CC(C)(C)c1ccc(C(=O)NCC(=O)N/N=C/c2cccnc2)cc1,inactive: 3.9%
18,Cc1cc(NC(c2cccnc2)c2ccc3cccnc3c2O)no1 (configuration not stated),inactive: 0.0813%
19,CC(=O)Nc1ccc(OCc2nnc(-c3ccc(Cl)cc3)o2)cc1,inactive: 37.6%
20,COc1ccc(NC(=O)NCc2ccc3c(c2)OCO3)cc1,inactive: 3.47%
21,CC1CCC(C(=O)NC(C(=O)Nc2ccccn2)C(C)C)CC1 (configuration not stated),inactive: 10.1%
22,O=C(c1ccc(Cl)c(S(=O)(=O)N2CCOCC2)c1)N1CCCCCC1,inactive: 15.5%

row,SMILES,growth rescue (activation)
1,COc1ccc(-c2nnc(SCC(=O)NCC3CCCO3)n2C)cc1 (configuration not stated),inactive: 2.34%
2,COc1cc(CNn2c(C)n[nH]c2=S)cc(Cl)c1OCC(=O)NC(C)(C)C,inactive: -13.6%
3,CC1CN(c2ccccc2)c2nc3c(c(=O)[nH]c(=O)n3C)n2C1 (configuration not stated),inactive: -7.45%
4,CC(=O)c1cccc(NC(=O)c2ccc(OC3CSC3)cc2)c1,inactive: 11.2%
5,CCc1cc2cc3c(cc2nc1SCC(=O)Nc1c[nH]c(=O)[nH]c1=O)OCO3,inactive: 6.56%
6,CCOc1ccccc1NC(=O)C1CCN(C(=O)C2CC(=O)N(c3ccc(C)cc3)C2)CC1 (configuration not stated),inactive: 9.99%
7,CC(=O)C(Cc1ccccc1)NC(=O)CN(C)Cc1ccccc1Cl (configuration not stated),inactive: -0.359%
8,COc1cccc(N2C(=O)CC(N3CCN(CCN=CC4=C(O)CC(C)(C)CC4=O)CC3)C2=O)c1 (configuration not stated),inactive: 18.7%
9,CC1CCN(c2ccc([N+](=O)[O-])cc2C(=O)NCC2CCCO2)CC1 (configuration not stated),inactive: 18.4%
10,CCOC(=O)CSc1nc(C)c(Oc2ccc(Cl)cc2Cl)c(=O)[nH]1,inactive: -41.3%
11,C=CCN1C(=O)/C(=C\C=C2\N(C)c3ccccc3C2(C)C)SC1=S,inactive: -1.85%
12,CCn1c(CNC(=O)c2ccccc2F)nnc1SCC(=O)Nc1nncs1,inactive: -6.62%
13,COc1cc(-c2cc3nc(NCCc4ccncc4)ccn3n2)cc(OC)c1OC,inactive: 1.21%
14,COc1ccc(C)cc1NC(=O)CN(C)C1CCCCC1,inactive: 1.82%
15,NC(=O)c1ccc2nc(NC(=O)c3ccc(N)cc3)sc2c1,inactive: 1.11%
16,COc1ccccc1-c1c(C(F)(F)F)oc2cc(OCC(=O)Nc3ccccc3C(F)(F)F)ccc2c1=O,inactive: 18.4%
17,COc1ccccc1/C=C/C(=O)NCC(=O)n1nc(C)cc1C,inactive: -4%
18,O=C(NN1C(=O)C2C3c4ccccc4C(c4ccccc43)C2C1=O)c1ccccc1 (configuration not stated),inactive: 5.27%
19,O=C(NC(=S)Nc1ccc(CN2CCOCC2)cc1)c1ccc(-c2ccc(Br)cc2)o1,inactive: 10.3%
20,Cc1ccsc1C1C(C#N)=C(N)N(N(C)C)C2=C1C(=O)CC(C)(C)C2 (configuration not stated),inactive: 10.2%
21,COc1ccc(/C=C(/NC(=O)c2ccccc2)C(=O)N2CCCC2)cc1,inactive: 0.125%
22,N#Cc1ccc(OCC(=O)OCC(=O)Nc2cc(C(F)(F)F)ccc2N2CCOCC2)cc1,inactive: 14.5%

row,SMILES,growth rescue (activation)
1,CC1CCCC(NC(=O)C2N(CCCN3CCCC3)C(=O)C3C(C(=O)Nc4cccc(Cl)c4)C4C=CC32O4)C1C (configuration not stated),inactive: 5.91%
2,CCNC(=O)C1(C)CCCN(Cc2cc(-c3ccccc3)n(C)n2)C1 (configuration not stated),inactive: 10.3%
3,CCN(CC)c1ccc(NC(=S)NC(=O)Cc2ccccc2)cc1,inactive: -6.94%
4,O=C(NCC(=O)N(c1cccnc1)C(C(=O)NC1CCCCC1)c1ccccc1)c1ccco1 (configuration not stated),inactive: 13%
5,COc1cccc(CNCC(=O)NC(=O)NC2CCCC2)c1,inactive: -8.73%
6,Nc1nc(SCC(=O)N2N=C3/C(=C\c4ccco4)CCCC3C2c2ccco2)n[nH]1 (configuration not stated),inactive: 12.2%
7,O=S(=O)(c1cccs1)N1CCN(c2ccccc2F)CC1,inactive: 16.9%
8,COc1ccc(/C=C/C2=NN(Cc3ccccc3)C(=O)CC2)cc1,inactive: 6.07%
9,C/C(=N\NC(=O)Cn1ccc(C(F)(F)F)n1)c1ccc(N2CCOCC2)cc1,inactive: 34.6%
10,Cc1ccc(NC(=O)c2ccc(Oc3ncccn3)cc2)cc1,inactive: 15.3%
11,O=C(CNc1cc(S(=O)(=O)N2CCOCC2)ccc1N1CCOCC1)Nc1cccc(C(F)(F)F)c1,inactive: 0.031%
12,Cc1ccc(C(=O)NCCCNC(=O)COc2ccccc2Cl)cn1,inactive: 8.01%
13,Cc1ccc(S(=O)(=O)N2CCN(C(=O)CN(Cc3ccco3)Cc3cccs3)CC2)cc1,inactive: -5.37%
14,CCCC(=O)NC(c1ccc(N(C)C)cc1)c1ccc2cccnc2c1O (configuration not stated),inactive: -0.524%
15,COc1cc(C2NC(=S)NC3=C2C(=O)CCC3)ccc1O (configuration not stated),inactive: 3.86%
16,COc1cccc(C(=O)/C=C/Nc2ccc(S(=O)(=O)Nc3onc(C)c3C)cc2)c1,inactive: -3.06%
17,CN(C)CCCOC(=O)c1sc2ccccc2c1Cl,inactive: 1.99%
18,CCCCOP(=O)(OCCCC)C(Nc1ccc(C(=O)OCC)cc1)c1ccncc1 (configuration not stated),inactive: 5.24%
19,COc1cccc(C(=O)N2CCC(C(=O)NCc3ccc(C)cc3)CC2)c1,inactive: -5.21%
